The source of these data is the RNAGym collection of RNA variant scans (doi:10.7554/elife.90254).

The source gives no read counts; variants with many changes may rest on few reads.

To fix the notation:
B1: OR4K15 (parent)
chain: GUUAACGGUCAUAGGCCAUGGAAACUAGGAGCACCAUUUCGCUGCCAGUGAAGAAAUGAACAAAGAAAAUCUGGGCCAGGCAGGCAUCAAAAGAAAUAGUCUUGCGCUCAACCAGAAAGUCUGUAAUCAUUUUAAGGGUA

This data set covers variants of B1. The experiment in a line: self-cleavage, relative activity (ratio to wild type); higher = more cleavage; in vitro, sequencing; the parent is a self-cleaving ribozyme.
In the case of GUUAGCGGUCAUAGGCCAUGGAAACUAGGAGCACCAUUUCGCUGCCAGUGAAGAAAUGAACAAAGAAGAUCUGGGCCAGGCAGGCAUCAAAAGAAAUAGUCUUGCGCUCAGCCAGAAAGUCUGUAAUCAUUUUAAGGCUA, the self-cleavage was 0.06.
Consider GUUAGCGGUCAUAGGCCAUGGAAACUAGGAGCACCAUUUCGCUGCCAGUGAAGAAAUGAACAAAGGAAAUCUGGGCCAGGCAGGCAUCAGAAGAAAUAGUCUUGCGCUCAACCAGAAAGUCUGUAAUCAUUUUAAGGGUA, for which the self-cleavage came out at 0.19.
In the case of GUUAGCGGUCAUAGGCCAUGGAAACUAGGAGCACCAUUUCGCUGCCAGUGAAGAAAUGAACAAAGAAGAUCUGGGCCAGGCAGGCAUCAAAAGAAAUAGUCUUGCGCUCAACCAGAAAGUCUGUAAUCAUUUUAAGGGCA it was 1.6; in that of GUUAGCGGUCAUAGGCCAUGGAAACUAGGAGCACCAUUUCGCUGCCAGUGAAGAAAUGAACAAAGAGAAUCUGGCCCAGGCAGGCAUCAAAAGAAAUAGUCUUGCGCUCAACCAGAAAGUCUGUAGUCAUUUUAAGGGUA, 0.19; in that of GUUAGCGGUCAUAGGCCAUGGAAACUAGGAGCACCAUUUCGCUGCCAGUGAAGAAAUGAACAAAGAAAAUCUGGGCCAGGCAGGCAUCAAAAGAAAUAGUCUUGCGCUCAGCCAGAAAGUCGGUAAUCAUUUUAAGGGUA, 0.04.
In the case of GUUAGCGGUCAUAGGCCAUGGAAACUAGGAGCACCAUUUCGCUGCCAGUGAAGAAAUGAACAAAGAAAAUCUGGGCCAGGCAGGCAUCAGAAGAAACAGUCUUGCGCUCAACCAGAAAGUCUGUAAUCAUUUUAAGGGUA it was 0; in that of GUUAGCGGUCAUAGGCCAUGGAAACUAGGAGCACCAUUUCGCUGCCAGUGAAGAAAUGAACAAAGAAAAUCUGGGCCUGGCAGGCAUCAAAAGAAGUAGUCUUGCGCUCAACCAGAAAGUCUGUGAUCAUUUUAAGGGUA, 0.09; in that of GUUAGCGGUCAUAGGCCAUGGAAACUAGGAGCACCAUUUCGCUGCCAGUGAAGAAAUGAACAAAGAAGAUCUGGGCCAGGCAGGCAUCAAAAGAAAUAGUCUUGCGCUCAACCAGAAGGUCUGUAAUCAUUUUAAGGGUA, 0.79.
In the case of GUUAGCGGUCAUAGGCCAUGGAAACUAGGAGCACCAUUUCGCUGCCAGUGAAGAAAUGAACAAAGGAAAUCUGGGCCAGGCAGGCAUCAAAAGAAAUAGUCUUGCGCUCAACCAGGAAGUCUGUAAUCAUUUUAAGGGUA it was 0.52.
GUUAGCGGUCAUAGGCCAUGGAAACUAGGAGCACCAUUUCGCUGCCAGUGAAGAAAUGAACAAAGAAAGUCUGGGCCAGGCAGGCAUCAAAGGAAAUAGUCUUGCGCUCAACCAGAAAGUCUGUAAUCAUUUUAAGGGUA: the self-cleavage turned out to be 0.73.
With GUUAGCGGUCAUAGGCCAUGGAAACUAGGAGCACCAUUUCGCUGCCAGUGAAGAAAUGAACAAAGAAAAUCUGGGCCAGGCAGGCGUCAAAAGAAAUAGUCUUGCGCUCAGCCAGAAAGCCUGUAAUCAUUUUAAGGGUA the figure was 0.09.
In the case of GUUAGCGGUCAUAGGCCAUGGAAACUAGGAGCACCAUUUCGCUGCCAGUGAAGAAAUGAACAAAGAAAAUCUGGGCCAGGCAGGCAUCAAAAGAAAUAGUCUUGCGCUCAACCAGAGAGUCUGUAGUCAUUUUAAGGGUA, the self-cleavage was 0.47.
With GUUAGCGGUCAUAGGCCAUGGAAACUAGGAGCACCAUUUCGCUGCCAGUGAAGAAAUGAACAAAGAUAAUCUGGGCCAGGCAGGCAUCAAAAGAAAUAGUCUUGCGCUCAACCAGAAAGUCUGUUAUCAUUUUAAGGGUA the figure was 1.41; with GUUAGCGGUCAUAGGCCAUGGAAACUAGGAGCACCAUUUCGCUGCCAGUGAAGAAAUGAACAAAGUAAAUCUGGGCCAGGCAGGCAUCAAAAGAAAUAGUCUUGCGCUCAACCAGAAAGUCUGUAAUCACUUUAAGGGUA, 0.44.
With GUUAGCGGUCAUAGGCCAUGGAAACUAGGAGCACCAUUUCGCUGCCAGUGAAGAAAUGAACAAAGAAAAUCUGGGCCAGGCAGGCAUCAGAAGAAAUAGUCUUGCGCUCAGCCAGAAAGUCUGUAAUCAUUUUAAGGGUA the figure was 0.1; with GUUAGCGGUCAUAGGCCAUGGAAACUAGGAGCACCAUUUCGCUGCCAGUGAAGAAAUGAACAAAGAAAAUCUGGGCCAGGCAGGCAUCAAAGGAAAUAGUCUUGCGCUCAGCCAGAAUGUCUGUAAUCAUUUUAAGGGUA, 0.04.
With GUUAGCGGUCAUAGGCCAUGGAAACUAGGAGCACCAUUUCGCUGCCAGUGAAGAAAUGAACAAAGAAAAUCUGGGCCAGGCAGGCAUCAGAAGAAAUAGUCUUGCGCUCAACCAGAAAGUCCGUAAUCAUUUUAAGGGUA the figure was 0; with GUUAGCGGUCAUAGGCCAUGGAAACUAGGAGCACCAUUUCGCUGCCAGUGAAGAAAUGAACAAAGAAAGUCUGGGCCAGGCAGGCAUCAGAAGAAAUAGUCUUGCGCUCAACCAGAAAGUCUGUAAUCAUUUUAGGGGUA, 0.42; with GUUAGCGGUCAUAGGCCAUGGAAACUAGGAGCACCAUUUCGCUGCCAGUGAAGAAAUGAACAAAGGAAAUCUGGGCCGGGCAGGCAUCAAAAGAAAUAGUCUUGCGCUCAACCAGAAAGUCUGUAAUCUUUUUAAGGGUA, 0.19.
For GUUAGCGGUCAUAGGCCAUGGAAACUAGGAGCACCAUUUCGCUGCCAGUGAAGAAAUGAACAAAGAAAAUCUGGGCCAGGCAGGCAUCAAAAGAAAUAGUCUUGCGCUCAACCAGAAAGUCUGUUAUCAUUUUAAGGAUA, the self-cleavage came to 1.47.
With GUUAGCGGUCAUAGGCCAUGGAAACUAGGAGCACCAUUUCGCUGCCAGUGAAGAAAUGAACAAAGAAAAUCUGGGCCAGGCAGGCAUCAAAGGAAAUAGUCUCGCGCUCAACCAGAAAGUCUGUAAUCAUUUUAAGGGUA the figure was 0.38; with GUUAGCGGUCAUAGGCCAUGGAAACUAGGAGCACCAUUUCGCUGCCAGUGAAGAAAUGAACAAAGAAAAUCUGGGCCAGGCAGGCAUCAAAAGAGAUAGUCUUGCGCUCAACCAGAAAGUCUGUAUUCAUUUAAAGGGUA, 0.56; with GUUAGCGGUCAUAGGCCAUGGAAACUAGGAGCACCAUUUCGCUGCCAGUGAAGAAAUGAACAAAGAGAAUCUGGGCCAGGCAGGCAUCAAAAGACAUAGUCUUGCGCUCAACCAGAAAGUCUGUAAUCAUUUUAAGGGUA, 0.77.
In the case of GUUAGCGGUCAUAGGCCAUGGAAACUAGGAGCACCAUUUCGCUGCCAGUGAAGAAAUGAACAAAGAAAAUCUGGGCCAGGCGGGCAUCGAAUGAAGUAGUCUUGCGCUCAACCAGAAAGUCUGUAAUCAUUUUAAGGGUA it was 0.6.
In the case of GUUAGCGGUCAUAGGCCAUGGAAACUAGGAGCACCAUUUCGCUGCCAGUGAAGAAAUGAACAAAGAAAAUCUGGGCCAGGCAGGCAUCAAAAGAAAUAGUCUUGCGCUCAACCUGAAAGUCUGUAAUCAUUUCAAGGGUA it was 0.21; in that of GUUAGCGGUCAUAGGCCAUGGAAACUAGGAGCACCAUUUCGCUGCCAGUGAAGAAAUGAACAAAGAAAGUCUGGGCCAGGCGGGCAUCAAAAGGAAUAGUCUUGCGCUCAACCAGAAAGUCUGUAAUCAUUUUAAGGGUA, 0.49.
For the variant GUUAGCGGUCAUAGGCCAUGGAAACUAGGAGCACCAUUUCGCUGCCAGUGAAGAAAUGAACAAAGAAACUCUGGGCCAGGCAGGCUUCAAAAGAAAUAGUCUUGCGCUCAACCAGAAAGUCUGUAAUCAUUUUAAGGGUU, the self-cleavage is 1.34.
Consider GUUAGCGGUCAUAGGCCAUGGAAACUAGGAGCACCAUUUCGCUGCCAGUGAAGAAAUGAACAAAGAAAAUCUGGGCCAGGCAGGCAUCGAAGGAAAUAGUCUUGCGCUCAACCAGAAAGUCCGUAAUCAUUUUAAGGGUA, for which the self-cleavage came out at 0.68.
In the case of GUUAGCGGUCAUAGGCCAUGGAAACUAGGAGCACCAUUUCGCUGCCAGUGAAGAAAUGAACAAAGAAGAUCUGGGCCAGGCAGGUAUCAAAAGAAAUAGUCUUGCGCUCAACCAGAAAGUCUGUAAUCAUUUUAAGGGUA, the self-cleavage worked out at 1.28.
On to GUUAGCGGUCAUAGGCCAUGGAAACUAGGAGCACCAUUUCGCUGCCAGUGAAGAAAUGAACAAAGAAAAUCUGGGCCAGGCAGGCAUCAGAAGAAAUAGUCUUGCGCCCAACCAGAAAGUCUGUAAUCAUUUUAAGGGUA, for which the self-cleavage is 0.09.
On to GUUAGCGGUCAUAGGCCAUGGAAACUAGGAGCACCAUUUCGCUGCCAGUGAAGAAAUGAACAAAGAAAAUCUGGGCCAGGCAGGCAUCAGAAGAAAUAGUCUUGCGCUCAACCAGUAAGUCUGUAAUCAUUUUAAGGGUA, for which the self-cleavage amounted to 0.01.
For GUUAGCGGUCAUAGGCCAUGGAAACUAGGAGCACCAUUUCGCUGCCAGUGAAGAAAUGAACAAAGAAAAUCUGGGCCAGGCAGGCAUCAAAAGUAAUAGACUUGCACUCAACCAGAAAGUCUGUAAUCAUUUUAAGGGUA, the self-cleavage was 0.
With GUUAGCGGUCAUAGGCCAUGGAAACUAGGAGCACCAUUUCGCUGCCAGUGAAGAAAUGAACAAAGAAAAUCUGGGCCAGGCAGGCAUCAAAAGAAAUAGUCUUGCGCUCAACCAGAAGGUCCGUAAUCAUUUUAAGGGUA the figure was 0.92.
With GUUAGCGGUCAUAGGCCAUGGAAACUAGGAGCACCAUUUCGCUGCCAGUGAAGAAAUGAACAAAGAAAAUCUGGGCCGGGCAGGCAUCAAAAGGAAUAGUCUUGCGCUCAACCAGAAAGUCUGUAAUCAUUUUAAGGGUA the figure was 0.41; with GUUAGCGGUCAUAGGCCAUGGAAACUAGGAGCACCAUUUCGCUGCCAGUGAAGAAAUGAACAAAGAAAAUCUGGGCCAGGCAGGCAUCAAAGGAAAUCGUCUUGCGCUCAACCAGAAAGUCUGUAAUCAUUUUAAGGGUA, 1.37; with GUUAGCGGUCAUAGGCCAUGGAAACUAGGAGCACCAUUUCGCUGCCAGUGAAGAAAUGAACAAAGAAAAUCUGGGCCAGGCAGGCAUCAAAAGAAAUAGUCUUGCGCUCAGCCAGAAAGUCUGUAAUCAUUUUGAGGGUA, 0.
With GUUAGCGGUCAUAGGCCAUGGAAACUAGGAGCACCAUUUCGCUGCCAGUGAAGAAAUGAACAAAGAAAAUCUGGGCCAGGCUGGCACCAAAAGAAAUAGUCUUGCGCUCAACCAGAAAGUCUGUAAUCAUUUUAAGGGUA the figure was 0.13; with GUUAGCGGUCAUAGGCCAUGGAAACUAGGAGCACCAUUUCGCUGCCAGUGAAGAAAUGAACAAAGAAAAUCUGGGCCAGGCUGGCACCAAAUGAAAUAGUCUUGCGCUCAACCAGAAAGUCUGUGAUCAUUUUAAGGGUA, 0.04; with GUUAGCGGUCAUAGGCCAUGGAAACUAGGAGCACCAUUUCGCUGCCAGUGAAGAAAUGAACAAAGAAAAUCUGGGCCAGGCAGGCAUCGAAAGAAAUAGUCUUGCGCUCAACCAGAAGGUCUGUAAUCAUCUUAAGGGUA, 0.79.
For GUUAGCGGUCAUAGGCCAUGGAAACUAGGAGCACCAUUUCGCUGCCAGUGAAGAAAUGAACAAAGAAGAUCUGGGCCAGGCAGGCACCAAAAGAAAUAGUCUUGCGCUCAACCAGAAAGUCUGUAAUCAUUUUAAGGGUA, the self-cleavage came out at 0.95.
In the case of GUUAGCGGUCAUAGGCCAUGGAAACUAGGAGCACCAUUUCGCUGCCAGUGAAGAAAUGAACAAAGAAAGUCUGGGCCAGGCAGGCAACAAAAGAAAUAGUCUUGCGCUCAACCAGAAAGUCUGUAAUCAUUUUAAGAGUA it was 0.33.
